# Source: the supplement of paper PMC8728848
# The list shows a part of the results.
# B1: PX9961X-pdi-531-24-531 (Parabacteroides distasonis) (protein)
# chain: DLTEEIHSSVIAENYYNNAGEVMAAMMRPWGHFCGTMQVAQSPWSCNELSSDCAAWPQKGRHGYDNGDWIRLHRHQWIPTDGQVVDAWKKLFEGIGYANNFLTDTENIDFEALQVPMSKAQAQAEMRVYRAYCYWYVMDMFGTAPICEKIGEINPSSKSRAELFAWIEKELNESIPSLSESKTETYGRVSKWGAYALLARLYLNAEIYTGQARWDDCIAACDELAKGGFALDKKWNDTFRADNDKRSTEIIWSIVYDEVYAKGMGWYQRWLHYAHQTGWDLQSGPWNGLVTQPTFYDSFADNDLRKIEGFLIGKQYPRKVDENGNYYYDTTAEPLKGSEEYNGQDLVFVNYIKSMTEGEENSGARSIKYEIQPGTTGDMNNDWVMFRYSEVIYNKAEALMRKNGGKATQEVVDMINSVRQRSFKAEDWEKAKYTTATLTMDEFLAEKGREFAFEGIRRTDLVRFNKFVTTSWWDKTASNEPKRNIFPIPQRQLDANANLSPNEANSLF
# How the values were obtained:
# Assay in all cases: glycan array binding signal (z-score within array); higher = stronger binding
# Conditions in all cases: glycan notation: IUPAC condensed, linker removed
# [1] = biological target: Neu5Ac(a2-3)Gal(b1-3)GlcNAc(b1-2)Man(a1-3)[GlcNAc(b1-4)][Neu5Ac(a2-3)Gal(b1-3)GlcNAc(b1-2)Man(a1-6)]Man(b1-4)GlcNAc(b1-4)GlcNAc
# How it was run: (§1)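 The Consortium for Functional Glycomics database supplied 3228 glycan arrays, of which those lacking an available protein sequence were dropped. The binding signal, a within-array Z-score, was averaged across arrays of the same protein sequence and across linkers. Negative scores can be read as non-binding.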
# [2] = biological target: Neu5Ac(a2-3)Gal(b1-3)GlcNAc(b1-2)Man(a1-3)[Neu5Ac(a2-3)Gal(b1-3)GlcNAc(b1-2)Man(a1-6)]Man(b1-4)GlcNAc(b1-4)GlcNAc
# How it was run: as §1
# [3] = biological target: Neu5Ac(a2-3)Gal(b1-3)GlcNAc(b1-3)Gal(b1-3)GlcNAc
# How it was run: as §1
# [4] = biological target: Neu5Ac(a2-3)Gal(b1-3)GlcNAc(b1-3)Gal(b1-4)GlcNAc
# How it was run: as §1
# [5] = biological target: Neu5Ac(a2-3)Gal(b1-3)GlcNAc(b1-3)GalNAc
# How it was run: as §1
# [6] = biological target: Neu5Ac(a2-3)Gal(b1-3)GlcNAc(b1-4)Gal(b1-4)Glc
# How it was run: as §1
# [7] = biological target: Neu5Ac(a2-3)Gal(b1-3)GlcNAc(b1-6)GalNAc
# How it was run: as §1
# [8] = biological target: Neu5Ac(a2-3)Gal(b1-3)GlcNAc6S
# How it was run: as §1
# [9] = biological target: Neu5Ac(a2-3)Gal(b1-3)[Fuc(a1-4)]GlcNAc
# How it was run: as §1
# [10] = biological target: Neu5Ac(a2-3)Gal(b1-3)[Fuc(a1-4)]GlcNAc(b1-3)Gal(b1-3)[Fuc(a1-4)]GlcNAc
# How it was run: as §1
# [11] = biological target: Neu5Ac(a2-3)Gal(b1-3)[Fuc(a1-4)]GlcNAc(b1-3)Gal(b1-4)[Fuc(a1-3)]GlcNAc
# How it was run: as §1
# [12] = biological target: Neu5Ac(a2-3)Gal(b1-3)[GlcNAc(b1-6)]GalNAc
# How it was run: as §1
# [13] = biological target: Neu5Ac(a2-3)Gal(b1-3)[Neu5Ac(a2-6)]GalNAc
# How it was run: as §1
# [14] = biological target: Neu5Ac(a2-3)Gal(b1-3)[Neu5Ac(a2-6)]GlcNAc(b1-3)[Fuc(a1-3)[Gal(b1-4)]GlcNAc(b1-6)]Gal(b1-4)Glc
# How it was run: as §1
# [15] = biological target: Neu5Ac(a2-3)Gal(b1-3)]Neu5Ac(a2-3)Gal(b1-4)]GlcNAc
# How it was run: as §1
# Neu5Ac(a2-3)Gal(b1-4)Glc = biological target: Neu5Ac(a2-3)Gal(b1-4)Glc
# How it was run: as §1
# [16] = biological target: Neu5Ac(a2-3)Gal(b1-4)GlcNAc
# How it was run: as §1
# [17] = biological target: Neu5Ac(a2-3)Gal(b1-4)GlcNAc(b1-2)Man
# How it was run: as §1
# [18] = biological target: Neu5Ac(a2-3)Gal(b1-4)GlcNAc(b1-2)Man(a1-3)[GlcNAc(b1-4)][Neu5Ac(a2-3)Gal(b1-4)GlcNAc(b1-2)Man(a1-6)]Man(b1-4)GlcNAc(b1-4)GlcNAc
# How it was run: as §1
# [19] = biological target: Neu5Ac(a2-3)Gal(b1-4)GlcNAc(b1-2)Man(a1-3)[Neu5Ac(a2-3)Gal(b1-4)GlcNAc(b1-2)Man(a1-6)]Man(b1-4)GlcNAc(b1-4)GlcNAc
# How it was run: as §1
# [20] = biological target: Neu5Ac(a2-3)Gal(b1-4)GlcNAc(b1-2)Man(a1-3)[Neu5Ac(a2-3)Gal(b1-4)GlcNAc(b1-2)Man(a1-6)]Man(b1-4)GlcNAc(b1-4)[Fuc(a1-6)]GlcNAc
# How it was run: as §1
# [21] = biological target: Neu5Ac(a2-3)Gal(b1-4)GlcNAc(b1-2)Man(a1-3)[Neu5Ac(a2-6)Gal(b1-4)GlcNAc(b1-2)Man(a1-6)]Man(b1-4)GlcNAc(b1-4)GlcNAc
# How it was run: as §1
# [22] = biological target: Neu5Ac(a2-3)Gal(b1-4)GlcNAc(b1-2)[Neu5Ac(a2-3)Gal(b1-4)GlcNAc(b1-4)]Man(a1-3)[GlcNAc(b1-4)][Neu5Ac(a2-3)Gal(b1-4)GlcNAc(b1-2)[Neu5Ac(a2-3)Gal(b1-4)GlcNAc(b1-6)]Man(a1-6)]Man(b1-4)GlcNAc(b1-4)GlcNAc
# How it was run: as §1
# [23] = biological target: Neu5Ac(a2-3)Gal(b1-4)GlcNAc(b1-2)[Neu5Ac(a2-3)Gal(b1-4)GlcNAc(b1-4)]Man(a1-3)[GlcNAc(b1-4)][Neu5Ac(a2-3)Gal(b1-4)GlcNAc(b1-4)Man(a1-6)]Man(b1-4)GlcNAc(b1-4)GlcNAc
# How it was run: as §1
# [24] = biological target: Neu5Ac(a2-3)Gal(b1-4)GlcNAc(b1-2)[Neu5Ac(a2-3)Gal(b1-4)GlcNAc(b1-6)]Man(a1-6)[Neu5Ac(a2-3)Gal(b1-4)GlcNAc(b1-2)Man(a1-3)]Man(b1-4)GlcNAc(b1-4)GlcNAc
# How it was run: as §1
# [25] = biological target: Neu5Ac(a2-3)Gal(b1-4)GlcNAc(b1-2)[Neu5Ac(a2-3)Gal(b1-4)GlcNAc(b1-6)]Man(a1-6)[Neu5Ac(a2-3)Gal(b1-4)GlcNAc(b1-2)Man(a1-3)][GlcNAc(b1-4)]Man(b1-4)GlcNAc(b1-4)GlcNAc
# How it was run: as §1
# [26] = biological target: Neu5Ac(a2-3)Gal(b1-4)GlcNAc(b1-3)Gal
# How it was run: as §1
# [27] = biological target: Neu5Ac(a2-3)Gal(b1-4)GlcNAc(b1-3)Gal(b1-3)GlcNAc
# How it was run: as §1
# [28] = biological target: Neu5Ac(a2-3)Gal(b1-4)GlcNAc(b1-3)Gal(b1-4)GlcNAc
# How it was run: as §1
# [29] = biological target: Neu5Ac(a2-3)Gal(b1-4)GlcNAc(b1-3)Gal(b1-4)GlcNAc(b1-2)Man(a1-3)[Neu5Ac(a2-3)Gal(b1-4)GlcNAc(b1-3)Gal(b1-4)GlcNAc(b1-2)Man(a1-6)]Man(b1-4)GlcNAc(b1-4)GlcNAc
# How it was run: as §1
# [30] = biological target: Neu5Ac(a2-3)Gal(b1-4)GlcNAc(b1-3)Gal(b1-4)GlcNAc(b1-3)Gal(b1-4)GlcNAc
# How it was run: as §1
# [31] = biological target: Neu5Ac(a2-3)Gal(b1-4)GlcNAc(b1-3)Gal(b1-4)GlcNAc(b1-3)Gal(b1-4)GlcNAc(b1-2)Man(a1-3)[Neu5Ac(a2-3)Gal(b1-4)GlcNAc(b1-3)Gal(b1-4)GlcNAc(b1-3)Gal(b1-4)GlcNAc(b1-2)Man(a1-6)]GalNAc
# How it was run: as §1
# [32] = biological target: Neu5Ac(a2-3)Gal(b1-4)GlcNAc(b1-3)Gal(b1-4)GlcNAc(b1-3)GalNAc
# How it was run: as §1
# [33] = biological target: Neu5Ac(a2-3)Gal(b1-4)GlcNAc(b1-3)Gal(b1-4)GlcNAc(b1-3)[Neu5Ac(a2-3)Gal(b1-4)GlcNAc(b1-3)Gal(b1-4)GlcNAc(b1-6)]GalNAc
# How it was run: as §1
# [34] = biological target: Neu5Ac(a2-3)Gal(b1-4)GlcNAc(b1-3)Gal(b1-4)GlcNAc(b1-6)[Gal(b1-3)]GalNAc
# How it was run: as §1
# [35] = biological target: Neu5Ac(a2-3)Gal(b1-4)GlcNAc(b1-3)Gal(b1-4)[Fuc(a1-3)]GlcNAc
# How it was run: as §1
# [36] = biological target: Neu5Ac(a2-3)Gal(b1-4)GlcNAc(b1-3)GalNAc
# How it was run: as §1
# [37] = biological target: Neu5Ac(a2-3)Gal(b1-4)GlcNAc(b1-3)[Neu5Ac(a2-3)Gal(b1-4)GlcNAc(b1-6)]GalNAc
# How it was run: as §1
binder,measurement,setting,value
B1,glycan array binding signal (z-score),[1],-0.305
same,glycan array binding signal (z-score),[2],0.812
same,glycan array binding signal (z-score),[3],-0.773
same,glycan array binding signal (z-score),[4],-0.692
same,glycan array binding signal (z-score),[5],-0.825
same,glycan array binding signal (z-score),[6],-0.299
same,glycan array binding signal (z-score),[7],0.382
same,glycan array binding signal (z-score),[8],0.246
same,glycan array binding signal (z-score),[9],-0.686
same,glycan array binding signal (z-score),[10],0.406
same,glycan array binding signal (z-score),[11],0.499
same,glycan array binding signal (z-score),[12],-0.585
same,glycan array binding signal (z-score),[13],-0.684
same,glycan array binding signal (z-score),[14],0.188
same,glycan array binding signal (z-score),[15],-0.257
same,glycan array binding signal (z-score),Neu5Ac(a2-3)Gal(b1-4)Glc,-0.314
same,glycan array binding signal (z-score),[16],-0.205
same,glycan array binding signal (z-score),[17],0.345
same,glycan array binding signal (z-score),[18],-0.411
same,glycan array binding signal (z-score),[19],-0.661
same,glycan array binding signal (z-score),[20],0.262
same,glycan array binding signal (z-score),[21],-0.499
same,glycan array binding signal (z-score),[22],-0.867
same,glycan array binding signal (z-score),[23],-0.254
same,glycan array binding signal (z-score),[24],0.2
same,glycan array binding signal (z-score),[25],-0.416
same,glycan array binding signal (z-score),[26],-0.183
same,glycan array binding signal (z-score),[27],0.115
same,glycan array binding signal (z-score),[28],-0.367
same,glycan array binding signal (z-score),[29],0.738
same,glycan array binding signal (z-score),[30],-0.134
same,glycan array binding signal (z-score),[31],1.07
same,glycan array binding signal (z-score),[32],-0.038
same,glycan array binding signal (z-score),[33],-0.773
same,glycan array binding signal (z-score),[34],-0.327
same,glycan array binding signal (z-score),[35],-0.564
same,glycan array binding signal (z-score),[36],0.228
same,glycan array binding signal (z-score),[37],-0.08
